# Laboratory results: the supplement of paper PMC8728848
# This is one part of the list.
# B1: Als1 (Candida albicans), P46590 (protein)
# chain: KTITGVFDSFNSLTWSNAANYAFKGPGYPTWNAVLGWSLDGTSANPGDTFTLNMPCVFKYTTSQTSVDLTADGVKYATCQFYSGEEFTTFSTLTCTVNDALKSSIKAFGTVTLPIAFNVGGTGSSTDLEDSKCFTAGTNTVTFNDGDKDISIDVEFEKSTVDPSGYLYASRVMPSLNKVTTLFVAPQCENGYTSGTMGFSSSNGDVAIDCSNIHIGITKGLNDWNYPVSSESFSYTKTCTSNGIQIKYQNVPAGYRPFIDAYISATDVNQYTLAYTNDYTCAGSRLQSKPFTLRWTGYKNSDAGSNGIVIVATTRTVTDSTTAVTTLPFNPSVDKTKTIEILQPIPTTTITTSYVGVTTSYLTKTAPIGETATVIVDVPYHTTTTVTSEWTGTITTTTTRTNPTDSIDTVVVQVP
# Assays:
# Assay in all cases: glycan array binding signal (z-score within array); higher = stronger binding
# Settings in all cases: glycan notation: IUPAC condensed, linker removed
# [1] = target: Gal(b1-3)GlcNAc(b1-6)GalNAc
# Summary of the method: (§1)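 Glycan array data were curated from 3228 arrays in the Consortium for Functional Glycomics database and kept only where the protein sequence was available. Glycan names were converted to IUPAC-condensed notation, and columns mapping to the same glycan were averaged. The binding signal is a within-array Z-score, averaged across arrays of the same protein sequence at different concentrations or buffers and across linkers. Negative Z-scores can be read as non-binding.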
# [2] = target: Gal(b1-3)GlcNAc(b1-6)[Gal(b1-3)]GalNAc
# Summary of the method: as §1
# [3] = target: Gal(b1-3)GlcNAc6S
# Summary of the method: as §1
# [4] = target: Gal(b1-3)[Fuc(a1-4)]GlcNAc
# Summary of the method: as §1
# [5] = target: Gal(b1-3)[Fuc(a1-4)]GlcNAc(b1-2)Man
# Summary of the method: as §1
# [6] = target: Gal(b1-3)[Fuc(a1-4)]GlcNAc(b1-2)Man(a1-3)[Gal(b1-3)[Fuc(a1-4)]GlcNAc(b1-2)Man(a1-6)]Man(b1-4)GlcNAc(b1-4)[Fuc(a1-6)]GlcNAc
# Summary of the method: as §1
# [7] = target: Gal(b1-3)[Fuc(a1-4)]GlcNAc(b1-3)Gal(b1-3)[Fuc(a1-4)]GlcNAc
# Summary of the method: as §1
# [8] = target: Gal(b1-3)[Fuc(a1-4)]GlcNAc(b1-3)Gal(b1-4)[Fuc(a1-3)]GlcNAc
# Summary of the method: as §1
# [9] = target: Gal(b1-3)[Fuc(a1-4)]GlcNAc(b1-6)GalNAc
# Summary of the method: as §1
# [10] = target: Gal(b1-3)[GlcNAc(b1-6)]GalNAc
# Summary of the method: as §1
# [11] = target: Gal(b1-3)[Neu5Ac(a2-6)]GalNAc
# Summary of the method: as §1
# [12] = target: Gal(b1-3)[Neu5Ac(a2-6)]GlcNAc(b1-4)Gal(b1-4)Glc
# Summary of the method: as §1
# [13] = target: Gal(b1-3)[Neu5Ac(b2-6)]GalNAc
# Summary of the method: as §1
# [14] = target: Gal(b1-4)Gal
# Summary of the method: as §1
# [15] = target: Gal(b1-4)GalNAc(a1-3)[Fuc(a1-2)]Gal(b1-4)GlcNAc
# Summary of the method: as §1
# [16] = target: Gal(b1-4)GalNAc(b1-3)[Fuc(a1-2)]Gal(b1-4)GlcNAc
# Summary of the method: as §1
# [17] = target: Gal(b1-4)Glc
# Summary of the method: as §1
# [18] = target: Gal(b1-4)Glc6S
# Summary of the method: as §1
# [19] = target: Gal(b1-4)GlcNAc
# Summary of the method: as §1
# [20] = target: Gal(b1-4)GlcNAc(a1-6)Gal(b1-4)GlcNAc
# Summary of the method: as §1
# [21] = target: Gal(b1-4)GlcNAc(b1-2)Man
# Summary of the method: as §1
# [22] = target: Gal(b1-4)GlcNAc(b1-2)Man(a1-3)Man(b1-4)GlcNAc(b1-4)GlcNAc
# Summary of the method: as §1
# [23] = target: Gal(b1-4)GlcNAc(b1-2)Man(a1-3)[Gal(b1-4)GlcNAc(b1-2)Man(a1-6)]Man(b1-4)GlcNAc(b1-4)GlcNAc
# Summary of the method: as §1
# [24] = target: Gal(b1-4)GlcNAc(b1-2)Man(a1-3)[Gal(b1-4)GlcNAc(b1-2)Man(a1-6)]Man(b1-4)GlcNAc(b1-4)[Fuc(a1-6)]GlcNAc
# Summary of the method: as §1
# [25] = target: Gal(b1-4)GlcNAc(b1-2)Man(a1-3)[Gal(b1-4)GlcNAc(b1-2)Man(a1-6)][Gal(b1-4)GlcNAc(b1-4)]Man(b1-4)GlcNAc(b1-4)[Fuc(a1-6)]GlcNAc
# Summary of the method: as §1
# [26] = target: Gal(b1-4)GlcNAc(b1-2)Man(a1-3)[Gal(b1-4)GlcNAc(b1-2)Man(a1-6)][GlcNAc(b1-4)]Man(b1-4)GlcNAc(b1-4)[Fuc(a1-6)]GlcNAc
# Summary of the method: as §1
# [27] = target: Gal(b1-4)GlcNAc(b1-2)Man(a1-3)[GlcNAc(b1-2)Man(a1-6)]Man(b1-4)GlcNAc(b1-4)GlcNAc
# Summary of the method: as §1
# [28] = target: Gal(b1-4)GlcNAc(b1-2)Man(a1-3)[GlcNAc(b1-4)][Gal(b1-4)GlcNAc(b1-2)Man(a1-6)]Man(b1-4)GlcNAc(b1-4)GlcNAc
# Summary of the method: as §1
# [29] = target: Gal(b1-4)GlcNAc(b1-2)Man(a1-3)[Man(a1-6)]Man(b1-4)GlcNAc(b1-4)GlcNAc
# Summary of the method: as §1
# [30] = target: Gal(b1-4)GlcNAc(b1-2)Man(a1-6)Man(b1-4)GlcNAc(b1-4)GlcNAc
# Summary of the method: as §1
# [31] = target: Gal(b1-4)GlcNAc(b1-2)Man(a1-6)[GlcNAc(b1-2)Man(a1-3)]Man(b1-4)GlcNAc(b1-4)GlcNAc
# Summary of the method: as §1
# [32] = target: Gal(b1-4)GlcNAc(b1-2)Man(a1-6)[Man(a1-3)]Man(b1-4)GlcNAc(b1-4)GlcNAc
# Summary of the method: as §1
# [33] = target: Gal(b1-4)GlcNAc(b1-2)[Gal(b1-4)GlcNAc(b1-4)]Man(a1-3)[Gal(b1-4)GlcNAc(b1-2)Man(a1-6)]Man(b1-4)GlcNAc(b1-4)GlcNAc
# Summary of the method: as §1
# [34] = target: Gal(b1-4)GlcNAc(b1-2)[Gal(b1-4)GlcNAc(b1-4)]Man(a1-3)[Gal(b1-4)GlcNAc(b1-2)[Gal(b1-4)GlcNAc(b1-6)]Man(a1-6)]Man(b1-4)GlcNAc(b1-4)GlcNAc
# Summary of the method: as §1
# [35] = target: Gal(b1-4)GlcNAc(b1-2)[Gal(b1-4)GlcNAc(b1-4)]Man(a1-3)[GlcNAc(b1-4)][Gal(b1-4)GlcNAc(b1-2)Man(a1-6)]Man(b1-4)GlcNAc(b1-4)GlcNAc
# Summary of the method: as §1
# [36] = target: Gal(b1-4)GlcNAc(b1-2)[Gal(b1-4)GlcNAc(b1-4)]Man(a1-3)[GlcNAc(b1-4)][Gal(b1-4)GlcNAc(b1-2)[Gal(b1-4)GlcNAc(b1-6)]Man(a1-6)]Man(b1-4)GlcNAc(b1-4)GlcNAc
# Summary of the method: as §1
# [37] = target: Gal(b1-4)GlcNAc(b1-2)[Gal(b1-4)GlcNAc(b1-6)]Man(a1-6)[Gal(b1-4)GlcNAc(b1-2)Man(a1-3)]Man(b1-4)GlcNAc(b1-4)GlcNAc
# Summary of the method: as §1
binder,measurement,setting,value
B1,glycan array binding signal (z-score),[1],-0.121
same,glycan array binding signal (z-score),[2],-0.388
same,glycan array binding signal (z-score),[3],-0.289
same,glycan array binding signal (z-score),[4],0.004
same,glycan array binding signal (z-score),[5],1.41
same,glycan array binding signal (z-score),[6],-0.166
same,glycan array binding signal (z-score),[7],-0.346
same,glycan array binding signal (z-score),[8],-0.6
same,glycan array binding signal (z-score),[9],0.658
same,glycan array binding signal (z-score),[10],-0.538
same,glycan array binding signal (z-score),[11],-0.168
same,glycan array binding signal (z-score),[12],-0.417
same,glycan array binding signal (z-score),[13],-0.157
same,glycan array binding signal (z-score),[14],-0.695
same,glycan array binding signal (z-score),[15],-0.451
same,glycan array binding signal (z-score),[16],-0.644
same,glycan array binding signal (z-score),[17],-0.335
same,glycan array binding signal (z-score),[18],-0.453
same,glycan array binding signal (z-score),[19],-0.264
same,glycan array binding signal (z-score),[20],-0.243
same,glycan array binding signal (z-score),[21],-0.62
same,glycan array binding signal (z-score),[22],-0.558
same,glycan array binding signal (z-score),[23],-0.453
same,glycan array binding signal (z-score),[24],-0.619
same,glycan array binding signal (z-score),[25],-0.696
same,glycan array binding signal (z-score),[26],-0.709
same,glycan array binding signal (z-score),[27],0.004
same,glycan array binding signal (z-score),[28],8.37
same,glycan array binding signal (z-score),[29],0.585
same,glycan array binding signal (z-score),[30],-0.576
same,glycan array binding signal (z-score),[31],0.003
same,glycan array binding signal (z-score),[32],0.044
same,glycan array binding signal (z-score),[33],-0.526
same,glycan array binding signal (z-score),[34],-0.151
same,glycan array binding signal (z-score),[35],-0.758
same,glycan array binding signal (z-score),[36],-0.769
same,glycan array binding signal (z-score),[37],7.7
